Source: publication PMC4336329 (PLoS ONE, 2015)
Out of some 310,000 compounds screened, about 2,200 (0.71%) showed an effect of 50% or more. The effect is printed as a negative number. Some of the results follow.

These compounds were tested against human ether-à-go-go-related gene (hERG) potassium channel (human, UniProt Q12809) (assay: primary screen, population patch clamp on CHO cells stably expressing hERG).
Chain of human ether-à-go-go-related gene (hERG) potassium channel (Q12809 whole entry, looked up): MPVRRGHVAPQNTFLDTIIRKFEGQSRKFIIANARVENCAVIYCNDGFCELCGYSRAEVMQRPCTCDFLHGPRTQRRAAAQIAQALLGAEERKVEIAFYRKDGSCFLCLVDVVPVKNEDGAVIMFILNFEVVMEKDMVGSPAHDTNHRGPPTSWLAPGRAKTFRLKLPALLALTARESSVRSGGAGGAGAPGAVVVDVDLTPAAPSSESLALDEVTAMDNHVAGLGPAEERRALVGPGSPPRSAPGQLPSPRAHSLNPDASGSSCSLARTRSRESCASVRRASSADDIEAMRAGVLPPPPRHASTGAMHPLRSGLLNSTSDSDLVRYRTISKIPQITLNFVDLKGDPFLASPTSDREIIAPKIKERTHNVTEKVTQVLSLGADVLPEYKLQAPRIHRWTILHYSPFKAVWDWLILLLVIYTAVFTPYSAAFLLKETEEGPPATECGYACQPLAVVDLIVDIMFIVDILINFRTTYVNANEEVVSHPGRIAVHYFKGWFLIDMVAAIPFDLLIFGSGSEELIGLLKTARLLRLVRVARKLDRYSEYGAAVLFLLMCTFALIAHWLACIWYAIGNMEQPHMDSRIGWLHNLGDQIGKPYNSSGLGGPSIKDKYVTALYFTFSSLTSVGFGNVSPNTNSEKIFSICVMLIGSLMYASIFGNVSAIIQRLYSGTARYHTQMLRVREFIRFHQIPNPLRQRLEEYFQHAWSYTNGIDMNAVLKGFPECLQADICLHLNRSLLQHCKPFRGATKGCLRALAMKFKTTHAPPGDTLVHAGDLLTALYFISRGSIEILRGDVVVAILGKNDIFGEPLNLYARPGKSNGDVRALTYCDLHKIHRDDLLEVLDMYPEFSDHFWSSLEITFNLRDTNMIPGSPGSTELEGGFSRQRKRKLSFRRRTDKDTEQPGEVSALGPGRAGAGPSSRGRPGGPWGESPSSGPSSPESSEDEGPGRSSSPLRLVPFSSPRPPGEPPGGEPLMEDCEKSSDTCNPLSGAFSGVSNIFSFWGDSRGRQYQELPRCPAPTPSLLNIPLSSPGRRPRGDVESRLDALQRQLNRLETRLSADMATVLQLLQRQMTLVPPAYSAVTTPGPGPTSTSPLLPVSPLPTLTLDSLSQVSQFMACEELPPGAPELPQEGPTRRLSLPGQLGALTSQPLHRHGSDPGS

Row | Structure (SMILES) | hERG current change (%, negative = inhibition) at 1uM [%]
1 | CCC(C)(C)NC(=O)C(c1ccc(O)cc1)N(C(=O)Cn1nnc2ccccc21)c1ccc(NC(C)=O)cc1 (centres unmarked) | 5.48
2 | CCOc1cc(/C=N\Nc2ccc([N+](=O)[O-])cc2)ccc1OCC(=O)Nc1ccc(C)c(C)c1 | 15.7
3 | c1ccc(Cc2nn3c(C4COc5ccccc5O4)nnc3s2)cc1 (centres unmarked) | 2.9
4 | CC(C)C(=O)Nc1nnc(SCC(=O)Nc2ccc3c(c2)OCCO3)s1 | 9.69
5 | COC(CNC(=O)c1cn(C)c2ccc(S(=O)(=O)N(C)C3CCCCC3)cc2c1=O)OC | 1.29
6 | COc1cccc(OC)c1C(=O)OCC(=O)Nc1cccnc1Cl | 1.91
7 | O=C(O)C1C2CCC(C2)C1C(=O)N1CCCC1 (centres unmarked) | 14.8
8 | S=c1[nH]nc(-c2ccccc2)n1/N=C/c1c[nH]c2ccccc12 | 13
9 | COC(=O)C(C)(C(=O)OC)c1ccc([N+](=O)[O-])cn1 | 13.8
10 | CS(=O)(=O)CCC(C(=O)OCc1ccc(Cl)cc1)N1C(=O)c2ccccc2C1=O (centres unmarked) | 4.3
11 | O=C(c1ccco1)N1CCN(C(=O)c2cc3cc([N+](=O)[O-])ccc3oc2=O)CC1 | -8.77
12 | Cc1ccc(CN(C)C(=O)CN2C(=O)NC3(CCCC3)C2=O)o1 | 18.7
13 | CC1(C)C=C(c2ccc(C=O)s2)CC(C)(C)N1C=O | 4.77
14 | Cc1ccc(S(=O)(=O)Oc2ccc(/C=N/NC(=O)c3c(Cl)cnn3C)cc2)cc1 | 6.95
15 | CN(C)CCCNC(=S)Nc1ccc(-c2ccccc2)cc1 | 2.17
16 | Cc1nc2ccccc2n1CC(=O)c1ccc(O)c(O)c1.Cl | 11.9
17 | NC(=O)NC(c1ccccc1)c1cccc2ccccc12 (centres unmarked) | 11.6
18 | O=[N+]([O-])c1ccc(O)c(/C=N/Nc2nc3ccccc3[nH]2)c1 | 10.5
19 | COc1ccc([C@@H](OC)[C@@]2(Cc3ccc(O)cc3)N=C(N)N(C)C2=O)cc1 | 5.53
20 | CCCC(c1nnnn1C1CCCCC1)N1CCN(C(=O)c2ccco2)CC1.Cl (centres unmarked) | -8.23
21 | COc1ccccc1NCC(=O)N/N=C/c1sccc1C | 14.6
22 | O=C(CC1C(=O)NCCN1Cc1c(F)cccc1Cl)NCCc1ccccn1 (centres unmarked) | 18.2

Row | Structure (SMILES) | hERG current change (%, negative = inhibition) at 1uM [%]
23 | CCN(CC)CCNC(=O)C(C)c1nn(C)c(=O)c2ccccc12 (centres unmarked) | 7.66
24 | CCOC(=O)c1ccc2[nH]c3c(c2c1)CN(C)CC3 | -10.6
25 | O=C(CN1C(=O)CSC1=O)Nc1ccccc1F | 11.2
26 | Cc1cccc(NCc2cc(Cl)cc(Cl)c2O)n1 | 12.3
27 | O=C(COc1cccc(Cl)c1)N/N=C\c1cc2ccccc2nc1Cl | 9.71
28 | C/C(=N\NC(=O)Cc1ccccc1)c1cccs1 | 10.7
29 | O=C(CCNC(=O)c1ccc(Cl)cc1)Nc1ccccc1N1CCCC1 | 2.63
30 | C/C(=N\NC(=O)C1CC1(C)c1ccccc1)c1ccco1 (centres unmarked) | 11.7
31 | COc1ccc(-c2cc3ccccc3oc2=O)cc1NC(=O)c1ccc([N+](=O)[O-])o1 | 7.55
32 | O=C(/C=C/c1ccccc1[N+](=O)[O-])NCc1ccncc1 | -2.49
33 | O=C(c1cc(-c2ccccc2)n[nH]1)N1CCc2c([nH]c3ccccc23)C1c1ccccn1 (centres unmarked) | 17.4
34 | CCn1c(=NC(=O)c2ccc(S(=O)(=O)N(C)C)cc2)sc2cccc(OC)c21 | 5.75
35 | COc1cc2c(cc1O)[C@@H]1Cc3ccc(OC)c(O)c3CN1CC2 | 7.65
36 | Cc1cc(C)c2c(Cn3ccnc3)cc(=O)oc2c1 | 12
37 | CC1CCC(NC(=O)Cn2c(=O)[nH]c3ccsc3c2=O)CC1 (centres unmarked) | 17
38 | CSCCC(NC(=O)COc1cccc2ccccc12)C(=O)O (centres unmarked) | 5.7
39 | CCOC(=O)c1nc(C)nc(Sc2n[nH]c(-c3ccc(C(C)(C)C)cc3)n2)c1C | 2.36
40 | O=[N+]([O-])c1ccc(-n2nnnc2CN2CCOCC2)cc1 | 12.2
41 | COc1cccc(C(=O)OCCN(C)C(C)(C)C)c1.Cl | 3.62
42 | CC(=O)Nc1ccc(NC(=O)C(C)OC(=O)c2cccc(S(=O)(=O)N3CCCCCC3)c2)cc1 (centres unmarked) | 17.6
43 | Cc1ccccc1-c1nnn(CC(=O)Nc2ccc3c(c2)OCO3)n1 | 5.93
44 | Fc1c(F)c(-n2nnc3ccccc32)c(F)c(F)c1Cl | 13.1
